The full ranking holds about 33,000 sequences; the median of “E-score (-0.5 to 0.5)” is about -0.036, and the highest 2% start at about 0.37. The list shows a part of the results.
target: T1, Yer064c (UniProt P40041); assay: PBM E-score (8-mer binding enrichment) (E-score (-0.5 to 0.5)); higher = stronger / more preferred TF binding; most listed sequences are background and not binding sites; conditions: protein concentration: 200 nM; construct: GST-full length
T1 sequence: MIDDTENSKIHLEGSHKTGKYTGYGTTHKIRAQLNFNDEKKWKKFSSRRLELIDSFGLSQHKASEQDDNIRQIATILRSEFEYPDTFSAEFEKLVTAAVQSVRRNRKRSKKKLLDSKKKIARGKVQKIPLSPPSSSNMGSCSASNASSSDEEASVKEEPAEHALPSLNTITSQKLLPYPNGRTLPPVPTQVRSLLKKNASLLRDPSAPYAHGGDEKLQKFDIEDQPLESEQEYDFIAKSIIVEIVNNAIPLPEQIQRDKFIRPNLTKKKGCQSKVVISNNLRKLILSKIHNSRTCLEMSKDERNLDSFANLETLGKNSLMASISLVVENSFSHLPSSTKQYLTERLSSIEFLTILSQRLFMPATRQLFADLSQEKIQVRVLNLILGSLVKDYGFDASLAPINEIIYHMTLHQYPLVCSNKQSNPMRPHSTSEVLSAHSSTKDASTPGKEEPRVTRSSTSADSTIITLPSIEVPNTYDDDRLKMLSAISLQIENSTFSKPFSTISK
Protocol: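 Universal 'all 10-mer' protein binding microarrays (Agilent AMADID 015681) probed with GST-tagged S. cerevisiae TFs (full-length or DBD) made by in vitro transcription/translation (PURExpress), about 100-200 nM. Bound TF was detected with fluorescent anti-GST. Each ungapped 8-mer (which stands for itself and its reverse complement) is scored by the PBM enrichment score (E-score), a modified Wilcoxon-Mann-Whitney statistic from -0.5 to +0.5, computed with the Universal PBM Analysis Suite. Scale: above 0.35 generally sequence-specific binding.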

Sequence | PBM E-score
AGCGGGTG | -0.0663
CATAGCCA | 0.0841
AGTCGCTA | 0.371
CTAGGCCC | -0.335
CAAGTCCC | -0.149
GTGGGACA | -0.164
ATGTCCAC | -0.288
ATCCTATA | 0.0379
CACTGAAA | 0.00366
GACCGTAC | -0.191
CGATAATC | 0.169
ACGTCACC | -0.162
AAATCAAC | 0.114
CTCGCTCC | -0.123
ACACCAGG | -0.148
AATACGCA | -0.102
ACGCGGGC | -0.251
AGGTATTC | -0.149
GTCGCCTA | -0.0597
AGCGAGCA | -0.0821
CCACGGAC | -0.252
CGAGCCAA | -0.0784
CTTACCCC | -0.132
ACTTGTTG | -0.0377
CTCAGAAA | 0.0849

Sequence | PBM E-score
AAGAGACG | -0.148
AGTACGCA | -0.0264
CGGCTCTA | -0.112
CAGACTAA | 0.317
ATGTACCG | 0.046
AAGGAGTG | -0.187
ACCAATAT | 0.063
ACCTCGCA | -0.145
AACAGCAA | -0.0406
CGCCAAGC | -0.102
ACACACGC | 0.0953
AACCGTGA | 0.174
GAGACCTC | 0.0495
CACGGTGA | 0.0984
CTCGGCGC | -0.182
ACGCAATG | -0.116
CGGCCATA | -0.0901
ATAGCACC | -0.165
CGCCATAG | -0.163
CAGAGTCG | 0.324
CAGCATAG | 0.00792
ATGTAAAG | -0.0273
AGGTCTTA | 0.0474
CGTCGGCC | -0.117
ATGACAAG | 0.0335

Sequence | PBM E-score
GACTTGGC | 0.0694
GAGCCTTA | -0.123
GTACGTAC | -0.014
GCAAAACA | -0.0508
GTCATTCA | 0.247
AATACTAT | 0.0492
CCCTCGAC | -0.201
ACCCGTAA | 0.0128
CGCGGGGA | -0.0848
AAGATATA | -0.0424
ATCTATCA | 0.0604
CCTGTGTA | 0.205
CTGCAACA | -0.0766
AGAGCAAA | -0.098
CCAAGAGG | -0.262
CAGGAGAG | -0.248
AGGGTGTC | 0.0904
AGAGATAC | -0.0567
AAGGAGGC | -0.402
ATAGAATA | 0.089
CAAGACCA | -0.111
CCCCCTCG | -0.433
GTCTGCTA | 0.0961
ATTATGGG | 0.135
ACTTCTGC | 0.0742

Sequence | PBM E-score
CATGACGC | -0.00343
GTTCAGAA | 0.00278
AACATTCG | -0.107
AATTACCG | -0.0624
ACAGACCC | 0.0828
TACCTGAA | 0.086
AACAAGAA | 0.12
AGTGGATG | -0.089
AAAGCCCG | -0.155
GTATTACA | -0.00195
CTGCGCGC | -0.0146
AACTATCA | 0.104
CGGTGCCA | -0.377
ACGGCCTA | -0.212
AAAGGTGG | -0.103
TCCGCGCA | -0.11
ACCTGAGC | -0.121
ACGATTAA | 0.26
ACTCAGAT | 0.339
AGATGGCA | -0.164
TCTATTCA | 0.129
AGCGGTCA | -0.0499
CATTCGGC | -0.121
GGCTGACA | -0.117
CGTACATA | 0.0237

Sequence | PBM E-score
TACTTCTA | 0.0324
AATACAGA | 0.0731
ACGAGAGG | -0.32
AAGCCGAG | -0.155
ACCCGACT | 0.233
GCGAATCC | -0.066
GACGCGAC | 0.0301
GTTTTGTA | 0.121
CTCCCTTC | -0.0477
CTCTTGAC | 0.143
AACGGGTC | -0.197
AGCAAGAT | 0.0139
AAGAGGCC | -0.198
AGCGCCCT | -0.113
GTTCGTGA | -0.108
AGTACGTA | 0.129
CAAAGTGG | 0.0067
GACCGACC | -0.17
GTGACCGA | -0.162
GGTAGACC | -0.168
ACGAAGCG | -0.0977
CTTGCGCC | -0.262
CAGGTCCA | -0.00679
ATCGACGA | 0.208
CCGACTAC | 0.325

Sequence | PBM E-score
CACCACTG | -0.229
CTAGTGAA | -0.0375
ATCCCCAC | -0.165
ACCCAAAC | 0.0204
CCAGGGAC | -0.156
ATGTCTTC | -0.0616
GCTGATGA | 0.268
GCCATTCA | -0.0419
AGCTGCGA | 0.0974
ATTAAGGA | 0.176
ATTCTTTG | 0.14
CTCTAATC | 0.155
CACGAGTC | 0.39
GACCGGAC | 0.116
CAGCGGAG | -0.219
ACCTTCGC | -0.145
CAACAGCA | -0.0811
ATATTGAA | 0.227
AATCATAG | 0.433
CAAACGAG | 0.0751
CAGAACAC | -0.122
GCGCTAGA | -0.0786
TAACTCTA | -0.17
TCGCTAGA | 0.117
TGGCTTAA | 0.123

Sequence | PBM E-score
AAGGTTCA | -0.0459
AGCACAGC | -0.0102
AAGAGTAT | 0.111
AGGCCGAC | -0.177
TTGGCCAA | -0.142
CAAATCCC | -0.155
CATATCCA | -0.244
CACAAGAC | 0.101
AACAGGCT | -0.0957
CTGTCCGA | -0.0708
ATGGATCA | 0.186
CCTGTGGC | -0.19
AAGCCTGG | -0.155
AGTTTTAA | 0.0974
AGGCTACG | -0.232
GCGCGAAA | -0.00022
ACCGAACG | -0.00508
GCTCGGAA | -0.085
GCTCCCTA | -0.225
CCTAAACG | -0.103
GTAAAAAC | -0.0718
AGCTGTGG | -0.274

Source: the supplement of paper PMC3334620
